Experimental findings from article PMC3088716 are described below.

The target in assay [1] is T1, HA-tagged Dnttip1 (mouse) (UniProt Q99LB0).
T1 sequence: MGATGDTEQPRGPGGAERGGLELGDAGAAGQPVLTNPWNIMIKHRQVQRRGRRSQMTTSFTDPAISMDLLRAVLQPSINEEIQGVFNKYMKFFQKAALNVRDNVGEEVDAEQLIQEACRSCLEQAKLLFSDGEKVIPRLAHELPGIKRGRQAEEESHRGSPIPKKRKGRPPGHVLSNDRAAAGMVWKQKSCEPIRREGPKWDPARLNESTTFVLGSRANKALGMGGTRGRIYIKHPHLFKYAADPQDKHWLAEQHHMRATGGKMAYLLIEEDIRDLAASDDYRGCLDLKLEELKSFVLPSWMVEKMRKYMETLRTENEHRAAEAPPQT
The assay can be described thus: co-IP; FLAG- and HA-tagged proteins co-expressed in HEK293 cells (harvested 24 hrs after transfection); whole cell lysates in MAPK buffer; agarose beads with anti-FLAG or anti-HA antibodies, 4°C, 2.5 hrs.

In assay [2] the target is T2, HA-tagged SAEG-2 (C. elegans) (UniProt Q03615).
T2 sequence: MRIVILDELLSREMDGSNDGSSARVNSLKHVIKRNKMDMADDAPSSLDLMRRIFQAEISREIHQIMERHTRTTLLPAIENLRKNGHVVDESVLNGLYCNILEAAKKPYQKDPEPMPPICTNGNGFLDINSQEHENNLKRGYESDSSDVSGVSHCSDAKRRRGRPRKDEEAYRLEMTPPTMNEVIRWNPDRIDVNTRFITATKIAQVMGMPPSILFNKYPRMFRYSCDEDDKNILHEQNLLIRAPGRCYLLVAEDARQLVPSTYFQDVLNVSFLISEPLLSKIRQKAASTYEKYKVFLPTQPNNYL
The assay can be described thus: co-IP; FLAG- and HA-tagged proteins co-expressed in Drosophila S2 cells (700 µM copper sulfate, 24 hrs); whole cell lysates in MAPK buffer (10 mM Tris-HCl pH 8.0, 50 mM NaCl, 1 mM EDTA, 1% NP-40); agarose beads with anti-FLAG or anti-HA antibodies, 4°C, 2.5 hrs.

Assay [3] has as its target T3, HA-tagged SAEG-1 (C. elegans) (UniProt Q20733).
T3 sequence: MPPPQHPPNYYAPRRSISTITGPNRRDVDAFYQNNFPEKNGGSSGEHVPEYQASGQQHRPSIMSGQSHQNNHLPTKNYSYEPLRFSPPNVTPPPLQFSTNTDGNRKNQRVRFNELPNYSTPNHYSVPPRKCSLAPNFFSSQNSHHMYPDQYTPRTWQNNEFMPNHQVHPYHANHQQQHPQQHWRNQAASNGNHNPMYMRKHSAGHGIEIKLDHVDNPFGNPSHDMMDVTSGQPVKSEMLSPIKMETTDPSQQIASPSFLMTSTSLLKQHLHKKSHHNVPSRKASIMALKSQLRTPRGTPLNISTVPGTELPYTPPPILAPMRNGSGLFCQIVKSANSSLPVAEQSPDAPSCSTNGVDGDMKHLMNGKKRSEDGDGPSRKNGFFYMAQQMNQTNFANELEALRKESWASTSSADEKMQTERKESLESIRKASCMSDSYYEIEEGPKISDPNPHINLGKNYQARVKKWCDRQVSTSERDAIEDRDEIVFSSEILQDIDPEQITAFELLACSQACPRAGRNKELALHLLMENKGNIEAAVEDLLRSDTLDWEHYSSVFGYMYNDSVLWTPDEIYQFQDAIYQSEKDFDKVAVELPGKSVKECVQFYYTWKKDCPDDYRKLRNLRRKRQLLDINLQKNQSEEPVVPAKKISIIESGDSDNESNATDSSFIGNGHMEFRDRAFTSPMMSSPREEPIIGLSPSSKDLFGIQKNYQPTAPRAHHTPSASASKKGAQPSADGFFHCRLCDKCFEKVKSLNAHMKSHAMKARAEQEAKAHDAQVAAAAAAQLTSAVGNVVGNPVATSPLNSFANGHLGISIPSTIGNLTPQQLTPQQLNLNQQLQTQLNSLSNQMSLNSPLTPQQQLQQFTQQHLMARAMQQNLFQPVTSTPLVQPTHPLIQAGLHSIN
The assay is described as above.

Results are given in words; binding and its absence hold for the method and conditions named. Binding seen in cells or lysates may run through a third protein. Some results given as binding are weak or reduced against the parent protein; the word gives no strength. Tags and fused reporters may be left off the sequences shown.

B1: FLAG-tagged ZNF541 (protein, UniProt Q0GGX2 1-1363)
chain: MEPYSLGEEGALPSEGHLPSFSESQVLNCSDTLNRDLGPSTRDLLYAGLSGLDLDPSLSTSDMPSEVLEDNLDTLSLYSGKDSDSVKLLEEYADSESQTSLQDLGLGALKVPKEADEGGRATGSTRKGKRQHSSPQNPLLDCSLCGKVFSSASSLSKHYLTHSQERKHVCKVCSKAFKRQDHLTGHMLTHQKTKPFVCIEQGCSKSYCDYRSLRRHYEVQHGVCILKETPPEEEAYGDPTHNHDVANQPPPSGLRSLGPPEARSPGSVLPNRDLLRCIVSSIVHQKIPSPGPAVGPSDTEARSSACACPTSLGSSSCTPASTPVALGTLGSEIPEETHPPRKEAATEVFTPVQSRAAENGVPDPPESELESESPRLQRPSSLEGWPEGSSLPACLPLFRGHSVPSGSQPSSHNFQWLRNLPGCPKNKGSNVFMVHKPPAVASREGSEGGGSGPSSTPTSVEPSPSLGTTQEELLPFPPALLKAPGEASSEVRQAAGEDETWAPKKCKPDCESFPWQSPTELGLQDAQNPGGLPSDATPLFRQLFMKSQESLVSHEQMQVLQMIAKSQRIFSHTQVATASAQRPGPEGKQSTLKPLQGPWPPQTLPPAPTVDSFQIGPGHSEPEGSPVRRRKTMPAVSRETSPGGPRRDTKGGPKVASAPPSLTGPGLLPSRNPDSSSLAKGTLDLGDIIPNAGSRQSQLGGDEPAGTQLVGKQGQGENGLASGAMRGEKGPACPRGGGYRLFSGHPRAQRFSGFRKEKVKMDVCCAASPSQVAMASFSSAGPLADPPRDMKSKLTIFNRIQGGNIYRLPHPVKEESLAGGCHQPNGGPTDWMESKSTFVCKNCSQMFYTEKGLSSHMCFHSDQWPSPRGKQEQQVKGQMVASVKRKAGREEGAVEDMKRHYDCSSSEPQDVTILSMLVSSGSCGVTPVVLSSLLQGQEKDGEERDSKESCQYRKRKKRPQPKALFAPPAPSALGEPGPGGCHQSCLHSPVFLVDHLLKGLFQCSPYTPPPMLSPIREGSGLYFNTLCSTSRAGPHLISPVLDQVDSSFGICVVKDDTKISIEPHINVGSRFQAEIPELQERLLARVDENVASLVWKPWGDVMTNPETQDRVMELCNVACSSVMPGGGTNLELALHCLHDAQGSVQVALETLLLRGPQKPRTHPLADYRYTGSDIWTPMEKRLFKKAFCAHKKDFYLIHKMIQTKSVAQCVEYYYIWKKMVKFDCGRAPGLEKRGRRELDEVERTEDKVTCSPRERPTHRPTPELKIKTKSYRRESILHSSPSAAPKRTPEPPGSVESQGVFPCRECERVFDKIKSRNAHMKRHRLQEHVEPVRVKWPVKPYPLKEEEEEEEEELGADMGPLQW
On to B1, for which the binding result in assay [1] is listed as “binds”.

B2: FLAG-tagged TRERF1 (protein, UniProt Q96PN7 1-1200)
chain: MGDQQLYKTNHVAHGSENLFYQQPPLGVHSGLNHNYGNAVTGGGMDAPQASPISPHFPQDTRDGLGLPVGSKNLGQMDTSRQGGWGSHAGPGNHVQLRGNLANSNMMWGAPAQAEPTDGYQYTYSQASEIRTQKLTSGVLHKLDSFTQVFANQNLRIQVNNMAQVLHTQSAVMDGAPDSALRQLLSQKPMEPPAPAIPSRYQQVPQQPHPGFTGGLSKPALQVGQHPTQGHLYYDYQQPLAQVPVQGGQPLQAPQMLSQHMQQMQQHQYYPPQQQQQAGQQRISMQEIQTQPQQIRPSQPQPPPQQQQPQQLQLQQRQGSMQIPQYYQPQPMMQHLQEQQQQQMHLQPPSYHRDPHQYTPEQAHTVQLIPLGSMSQYYYQEPQQPYSHPLYQQSHLSQHQQREDSQLKTYSSDRQAQAMLSSHGDLGPPDTGMGDPASSDLTRVSSTLPHRPLLSPSGIHLNNMGPQHQQLSPSAMWPQMHLPDGRAQPGSPESSGQPKGAFGEQFDAKNKLTCSICLKEFKNLPALNGHMRSHGGMRASPNLKQEEGEKVLPPQPQPPLPPPPPPPPPPQLPPEAESLTPMVMPVSVPVKLLPPKPSSQGFTNSTVAAPSARDKPASSMSDDEMPVLEIPRKHQPSVPKAEEPLKTVQEKKKFRHRPEPLFIPPPPSYNPNPAASYSGATLYQSQLRSPRVLGDHLLLDPTHELPPYTPPPMLSPVRQGSGLFSNVLISGHGPGAHPQLPLTPLTPTPRVLLCRSNSIDGSNVTVTPGPGEQTVDVEPRINIGLRFQAEIPELQDISALAQDTHKATLVWKPWPELENHDLQQRVENLLNLCCSSALPGGGTNSEFALHSLFEAKGDVMVALEMLLLRKPVRLKCHPLANYHYAGSDKWTSLERKLFNKALATYSKDFIFVQKMVKSKTVAQCVEYYYTWKKIMRLGRKHRTRLAEIIDDCVTSEEEEELEEEEEEDPEEDRKSTKEEESEVPKSPEPPPVPVLAPTEGPPLQALGQPSGSFICEMPNCGAVFSSRQALNGHARIHGGTNQVTKARGAIPSGKQKPGGTQSGYCSVKSSPSHSTTSGETDPTTIFPCKECGKVFFKIKSRNAHMKTHRQQEEQQRQKAQKAAFAAEMAATIERTTGPVGAPGLLPLDQLSLIKPIKDVDILDDDVVQQLGGVMEEAEVVDTDLLLDDQDSVLLQGDAEL
B2: in assay [1], the binding result is “binds”.

B3: FLAG-tagged HDA-2 (enzyme, UniProt Q09440 1-507)
chain: MSSDKFKLDTLFDDNDEIIEPDGADVKKRNVAYYYHKDVGHFHYGQLHPMKPQRLVVCNDLVVSYEMPKYMTVVESPKLDAADISVFHTEDYVNFLQTVTPKLGLTMPDDVLRQFNIGEDCPIFAGLWDYCTLYAGGSVEGARRLNHKMNDIVINWPGGLHHAKKSEASGFCYVNDIVLGILELLKYHKRVLYIDIDIHHGDGVQEAFNNSDRVMTVSFHRFGQYFPGSGSIMDKGVGPGKYFAINVPLMAAIRDEPYLKLFESVISGVEENFNPEAIVLQCGSDSLCEDRLGQFALSFNAHARAVKYVKSLGKPLMVLGGGGYTLRNVARCWALETGVILGLRMDDEIPGTSLYSHYFTPRLLRPNLVPKMNDANSAAYLASIEKETLACLRMIRGAPSVQMQNIVGIRLDEIEQIEENERLQKSSKSSIEYEVGKVSEKMEEECFVEEDSKPPSFPPGQDPRRIGQYWGYDRSGLAPPRSHSDVIEEAKYEDRDRRKDLNIPGIP
B3: the binding entry in assay [2] is “binds”.

B4: FLAG-tagged EGL-4(K162N), constitutively active (enzyme, UniProt O76360 1-780)
chain: MSSGSRPSSGGGGGGGGASGGAGGGAPGGGGGGIRGFFSKLRKPSDQPNGNQVQVGTRTFEAHELQKLIPQLEEAISRKDAQLRQQQTIVEGHIKRISELEGEVTTLQRECDKLRSVLEQKAQSAASPGGQPPSPSPRTDQLGNDLQQKAVLPADGVQRAKNIAVSAEPTNFENKPATLQHYNKTVGAKQMIRDAVQKNDFLKQLAKEQIIELVNCMYEMRARAGQWVIQEGEPGDRLFVVAEGELQVSREGALLGKMRAGTVMGELAILYNCTRTASVQALTDVQLWVLDRSVFQMITQRLGMERHSQLMNFLTKVSIFQNLSEDRISKMADVMDQDYYDGGHYIIRQGEKGDAFFVINSGQVKVTQQIEGETEPREIRVLNQGDFFGERALLGEEVRTANIIAQAPGVEVLTLDRESFGKLIGDLESLKKDYGDKERLAQVVREPPSPVKIVDDFREEFAQVTLKNVKRLATLGVGGFGRVELVCVNGDKAKTFALKALKKKHIVDTRQQEHIFAERNIMMETSTDWIVKLYKTFRDQKFVYMLLEVCLGGELWTTLRDRGHFDDYTARFYVACVLEGLEYLHRKNIVYRDLKPENCLLANTGYLKLVDFGFAKKLASGRKTWTFCGTPEYVSPEIILNKGHDQAADYWALGIYICELMLGRPPFQASDPMKTYTLILKGVDALEIPNRRIGKTATALVKKLCRDNPGERLGSGSGGVNDIRKHRWFMGFDWEGLRSRTLKPPILPKVSNPADVTNFDNYPPDNDVPPDEFSGWDEGF
B4: the binding result in assay [3] and in assay [2] was “binds” in each case.
